Paper PMC6919601, “Identification of Plasmodium dipeptidyl aminopeptidase allosteric inhibitors by high throughput screening” (PLoS ONE, 2019)
Values joined by “and” are separate entries in the source; they are usually repeats but may differ in a detail not shown here. Equal entries are not always repeated. Hit rate of the full screen: of about 110,000 compounds, about 230 (0.21%) showed an effect of 50% or more. The list shows a part of the results.
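Note: 30 min substrate incubation versus DMSO and 10 µM JCP410 controls.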

These molecules were tested against DPAP1 (Plasmodium falciparum, UniProt Q8IIJ9) (assay: primary screen, percent inhibition; read by cleavage of a fluorogenic dipeptide substrate; higher = more effect of the substance).
Chain of DPAP1 (Q8IIJ9 whole entry, looked up): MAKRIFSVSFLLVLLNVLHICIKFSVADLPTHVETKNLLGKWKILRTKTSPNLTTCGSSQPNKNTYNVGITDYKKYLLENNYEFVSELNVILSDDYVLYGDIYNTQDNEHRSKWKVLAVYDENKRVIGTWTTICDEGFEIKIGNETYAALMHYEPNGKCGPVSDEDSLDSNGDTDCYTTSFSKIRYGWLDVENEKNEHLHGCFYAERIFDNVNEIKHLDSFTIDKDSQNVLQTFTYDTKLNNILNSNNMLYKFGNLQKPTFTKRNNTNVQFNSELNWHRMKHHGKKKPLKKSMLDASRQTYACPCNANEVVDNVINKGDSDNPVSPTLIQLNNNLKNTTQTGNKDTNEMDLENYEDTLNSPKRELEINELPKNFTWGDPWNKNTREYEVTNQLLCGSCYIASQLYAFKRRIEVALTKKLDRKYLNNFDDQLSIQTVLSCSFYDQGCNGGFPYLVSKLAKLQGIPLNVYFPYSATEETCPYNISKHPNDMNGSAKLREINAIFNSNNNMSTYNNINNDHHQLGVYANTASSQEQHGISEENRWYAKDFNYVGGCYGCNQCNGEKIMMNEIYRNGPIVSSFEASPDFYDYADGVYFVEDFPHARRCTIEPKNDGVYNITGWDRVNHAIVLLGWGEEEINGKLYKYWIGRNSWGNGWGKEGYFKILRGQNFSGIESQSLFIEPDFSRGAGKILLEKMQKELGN
Parameters: species or system P. falciparum D10 trophozoite lysates; single well
In the case of CC(C)(C)C1(C)OC(=O)C(=Cc2ccc(-c3ccc(C(=O)O)cc3)o2)C(=O)O1 (stereo not drawn), the “% Inhibition @ 10 uM” value is reported as 27.6%. In the case of CCCC1(O)CC(c2ccccc2)NC(c2ccccc2)C1C (stereo not drawn), the “% Inhibition @ 10 uM” value is reported as 6.12% and -2.51%. With COc1ccc2oc(=O)c(-c3nc(-c4ccncc4)no3)cc2c1 the “% Inhibition @ 10 uM” value was -1.68%. For Cn1c(=O)c2c(nc(SCc3ccc(C(=O)O)cc3)n2C)n(C)c1=O, the “% Inhibition @ 10 uM” value was -0.386%. For CCOC(=O)N1CCC(NC(=O)CCc2c(C)nc3c(c(C)nn3-c3ccc(C)cc3)c2C)CC1, the “% Inhibition @ 10 uM” value was 2.93%. Cc1cc(C)c2c(N)c(C(=O)c3cccc(Cl)c3)sc2n1 was tested, and the “% Inhibition @ 10 uM” value was -1.38%. O=C(NCCOC12CC3CC(CC(C3)C1)C2)c1sc2ccccc2c1Cl was tested, and the “% Inhibition @ 10 uM” value was 1.84%. For Cc1ccc(S(=O)(=O)NC2(C(=O)O)CCCCC2)cc1, the “% Inhibition @ 10 uM” value was -0.0626%. CN(C)c1ccc(NC(=O)NC2CCCCC2)cc1 was tested, and the “% Inhibition @ 10 uM” value was -12.2%. CC(C)C[C@H](NC(=O)c1cccc(C#N)c1)C(=O)NCC#N was tested, and the “% Inhibition @ 10 uM” value was -4.72%. With CCN(CC)CCNC(=O)c1sc2ccccc2c1Cl the “% Inhibition @ 10 uM” value was -0.687%. For COCCCN(C(=O)Cn1ncc2c(=O)oc3ccc(C)cc3c21)C(C)c1ccncc1 (stereo not drawn), the “% Inhibition @ 10 uM” value was -0.0115%. CCC[C@H](NC(=O)C1(NC(=O)N2CCC(N3CCOCC3)CC2)CCCCC1)C(=O)c1nnc(-c2ccc(OC)cc2)o1 was tested, and the “% Inhibition @ 10 uM” value was -8.26%. COc1ccc(O)c(/C=N/NC(N)=S)c1 was tested, and the “% Inhibition @ 10 uM” value was 6.11%. For CCC1CCCCN1CCCNC(=O)C1CCN(S(=O)(=O)CC)CC1 (stereo not drawn), the “% Inhibition @ 10 uM” value was 11.1%. In the case of O=Cc1c[nH]c2ccc(S(=O)(=O)N3CCOCC3)cc12, the “% Inhibition @ 10 uM” value is reported as -4.32%. For CCOc1ccc(Oc2cccc(Br)n2)cc1, the “% Inhibition @ 10 uM” value was -0.511%. In the case of Cc1cccc(NC(=O)c2cc(F)c(F)cc2Cl)n1, the “% Inhibition @ 10 uM” value is reported as -2.8%. CCn1c(COC)nc2ccccc21 was tested, and the “% Inhibition @ 10 uM” value was -5.92%. CCN(CC)CCCNC(=O)Cn1ncn2c(cc3sccc32)c1=O was tested, and the “% Inhibition @ 10 uM” value was 0.137%. In the case of COc1ccc(C(=O)N[C@H]2COC(C)(C)O[C@H]2c2ccccc2)cc1, the “% Inhibition @ 10 uM” value is reported as -6.28%. CCN(CC)CCCOc1ccc(OC)cc1 was tested, and the “% Inhibition @ 10 uM” value was 3%. In the case of COC(=O)c1sccc1NC(=O)c1cc(-c2ccc(C)o2)nc2ccccc12, the “% Inhibition @ 10 uM” value is reported as 3.94%. With O=C(O)CSc1cc(NS(=O)(=O)c2ccc3ccccc3c2)c2ccccc2c1O the “% Inhibition @ 10 uM” value was -1.07%. CCOC(=O)c1[nH]c(C)c(C(=O)NC(CC)c2cccs2)c1C (stereo not drawn) was tested, and the “% Inhibition @ 10 uM” value was -4.68%. In the case of COc1ccc(C(N)=O)cc1NC(=O)CC(O)(C(F)(F)F)C(F)(F)F, the “% Inhibition @ 10 uM” value is reported as 3.8%. In the case of Cc1ccc(CNC(=O)CCCNS(=O)(=O)c2cccc3nonc23)cc1, the “% Inhibition @ 10 uM” value is reported as -8.38%. In the case of COc1ccccc1-n1nnc(-c2nsc(NC(=O)c3ccc(C)cc3)n2)c1C, the “% Inhibition @ 10 uM” value is reported as -3.02%. With Cc1ccc(C(=O)N/C(=C/c2cccs2)C(=O)NC(C)(C)C)cc1 the “% Inhibition @ 10 uM” value was -5.07%. In the case of COC(=O)c1cc(S(=O)(=O)N(C)Cc2ccccc2)c[nH]1, the “% Inhibition @ 10 uM” value is reported as -11.2%. For O=C(COc1ccc(Br)cc1)Nc1ccc(Cl)cc1C(=O)O, the “% Inhibition @ 10 uM” value was -2.74%. In the case of O=C(CN1C(=O)c2ccccc2C1=O)N1CCN=C1c1ccccc1, the “% Inhibition @ 10 uM” value is reported as -1.28%. With CN(C)c1ccc(CNCC2CCCO2)cc1 (stereo not drawn) the “% Inhibition @ 10 uM” value was 0.343%. For Cc1ccccc1C(=O)N1CCC(C(=O)Nc2ccc(C(F)(F)F)cc2)CC1, the “% Inhibition @ 10 uM” value was -0.48%. In the case of O=C1CC(N2CCN(Cc3ccc4c(c3)OCO4)CC2)C(=O)N1CCc1ccccc1 (stereo not drawn), the “% Inhibition @ 10 uM” value is reported as -1.65%. In the case of COc1cc(C2C(C(=O)Nc3ccccc3)=C(C)Nc3ncnn32)ccc1OCc1ccccc1 (stereo not drawn), the “% Inhibition @ 10 uM” value is reported as 6.1%. In the case of CCn1cc(CNC(=O)NC2CCCCC2)c(C)n1, the “% Inhibition @ 10 uM” value is reported as -2.37%. In the case of COc1ccc(C2c3cc(OC)c(OC)cc3CCN2C(C)=O)cc1OC (stereo not drawn), the “% Inhibition @ 10 uM” value is reported as -2.42%. With COc1cccc(CSc2nnc(C)n3c2cc2sccc23)c1 the “% Inhibition @ 10 uM” value was 2.54%. In the case of CCOc1ccc(C2C(C(=O)c3ccco3)=C(O)C(=O)N2Cc2cccnc2)cc1OC (stereo not drawn), the “% Inhibition @ 10 uM” value is reported as 2.17%. With C=CCc1cccc2cc(C(=O)NC3CC(C)(C)NC(C)(C)C3)c(=O)oc12 the “% Inhibition @ 10 uM” value was 6.91%. For CC1CCN(C(=O)c2ccc(Cl)cc2)CC1, the “% Inhibition @ 10 uM” value was 0.273%. CC(C)Sc1ncc(Cl)c(C(=O)N(Cc2ccccc2)c2ccccn2)n1 was tested, and the “% Inhibition @ 10 uM” value was 2.41%. With O=C(NC1CCSC1=O)c1ccccc1 (stereo not drawn) the “% Inhibition @ 10 uM” value was -0.833%. CCOC(=O)N1CCC2(CC1)C(C#N)=C(N)OC1=C2C(=O)CC(C)C1 (stereo not drawn) was tested, and the “% Inhibition @ 10 uM” value was -2.77%. With COCCCNC(=O)/C(C#N)=C/c1c(Oc2ccc(C(C)(C)C)cc2)nc2c(C)cccn2c1=O the “% Inhibition @ 10 uM” value was 2%. For CN(C)c1ccc(/C=C(/NC(=O)c2ccccc2)C(=O)N2CCCCCC2)cc1, the “% Inhibition @ 10 uM” value was 3.72%. With Cc1ccc2nc(C3C(=O)c4ccccc4C3=O)ccc2c1 the “% Inhibition @ 10 uM” value was -1.64%. O=C(CC(c1cccs1)N1Cc2ccccc2C1=O)NCc1ccccc1Cl (stereo not drawn) was tested, and the “% Inhibition @ 10 uM” value was -2.01%. For CCOc1cc(/C=C2/C(=N)N3C(=NC2=O)SN=C3S(C)(=O)=O)ccc1O, the “% Inhibition @ 10 uM” value was 1.85%. In the case of CC(C)C[C@H](NC(=O)OCc1ccccc1)C(=O)N(C)CC#N, the “% Inhibition @ 10 uM” value is reported as -3.97%. For COCCn1c(CN2CC(C)CC(C)C2)nc2c1c(=O)n(C)c(=O)n2C (stereo not drawn), the “% Inhibition @ 10 uM” value was 0.317%. For CCc1ccc(OCC(O)CN2CCN(c3ccccc3F)CC2)cc1 (stereo not drawn), the “% Inhibition @ 10 uM” value was -4.59%. With Cc1nc(-c2ccccc2)nc2c1C(=O)/C(=C/c1ccccc1)S2 the “% Inhibition @ 10 uM” value was -4.61%. For Fc1ccccc1CN1CCN(c2ccccn2)CC1, the “% Inhibition @ 10 uM” value was 1.55%. In the case of Cn1cc(C(=O)NCCC2=CCCCC2)c2c3ccccc3n(C)c2c1=O, the “% Inhibition @ 10 uM” value is reported as 0.723%. For COc1ccc(C2(CNS(=O)(=O)c3ccc(C)cc3)CCOCC2)cc1, the “% Inhibition @ 10 uM” value was 3.15%. For COc1ccc(C(C)NC(=O)C2C(=O)NC3(C)CC2c2ccccc2O3)cc1 (stereo not drawn), the “% Inhibition @ 10 uM” value was 2.56%. For CCS(=O)(=O)c1nc(S(=O)(=O)c2ccc(C)cc2)c(NC(C)C)s1, the “% Inhibition @ 10 uM” value was -0.522%. With NC(=O)c1cc(S(=O)(=O)N2CCN(C(c3ccc(F)cc3)c3ccc(F)cc3)CC2)cs1 the “% Inhibition @ 10 uM” value was 5.82%. In the case of CN(C)CCOC(=O)c1sc2ccccc2c1Cl, the “% Inhibition @ 10 uM” value is reported as -4.21%. N#Cc1c(N)nc2c(c1-c1ccco1)CCCCCC2 was tested, and the “% Inhibition @ 10 uM” value was -4.94%. With COc1ccc(N(C(=O)/C=C/c2ccccc2)C2=CC3CCC(C2)N3C)cc1 (stereo not drawn) the “% Inhibition @ 10 uM” value was 4.57%.
